Measurements published in article PMC4336329 (PLoS ONE, 2015).
In all, about 310,000 compounds went through this assay and about 14,000 (4.5%) showed an effect of 50% or more. Effects have a minus sign here. This is one part of the list.

The molecules below were run against human ether-à-go-go-related gene (hERG) potassium channel (human, UniProt Q12809) (assay: primary screen, population patch clamp on CHO cells stably expressing hERG).
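Note: peak tail current of the secondary pulse compared with the same well before compound.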

Chain of human ether-à-go-go-related gene (hERG) potassium channel (Q12809 whole entry, looked up): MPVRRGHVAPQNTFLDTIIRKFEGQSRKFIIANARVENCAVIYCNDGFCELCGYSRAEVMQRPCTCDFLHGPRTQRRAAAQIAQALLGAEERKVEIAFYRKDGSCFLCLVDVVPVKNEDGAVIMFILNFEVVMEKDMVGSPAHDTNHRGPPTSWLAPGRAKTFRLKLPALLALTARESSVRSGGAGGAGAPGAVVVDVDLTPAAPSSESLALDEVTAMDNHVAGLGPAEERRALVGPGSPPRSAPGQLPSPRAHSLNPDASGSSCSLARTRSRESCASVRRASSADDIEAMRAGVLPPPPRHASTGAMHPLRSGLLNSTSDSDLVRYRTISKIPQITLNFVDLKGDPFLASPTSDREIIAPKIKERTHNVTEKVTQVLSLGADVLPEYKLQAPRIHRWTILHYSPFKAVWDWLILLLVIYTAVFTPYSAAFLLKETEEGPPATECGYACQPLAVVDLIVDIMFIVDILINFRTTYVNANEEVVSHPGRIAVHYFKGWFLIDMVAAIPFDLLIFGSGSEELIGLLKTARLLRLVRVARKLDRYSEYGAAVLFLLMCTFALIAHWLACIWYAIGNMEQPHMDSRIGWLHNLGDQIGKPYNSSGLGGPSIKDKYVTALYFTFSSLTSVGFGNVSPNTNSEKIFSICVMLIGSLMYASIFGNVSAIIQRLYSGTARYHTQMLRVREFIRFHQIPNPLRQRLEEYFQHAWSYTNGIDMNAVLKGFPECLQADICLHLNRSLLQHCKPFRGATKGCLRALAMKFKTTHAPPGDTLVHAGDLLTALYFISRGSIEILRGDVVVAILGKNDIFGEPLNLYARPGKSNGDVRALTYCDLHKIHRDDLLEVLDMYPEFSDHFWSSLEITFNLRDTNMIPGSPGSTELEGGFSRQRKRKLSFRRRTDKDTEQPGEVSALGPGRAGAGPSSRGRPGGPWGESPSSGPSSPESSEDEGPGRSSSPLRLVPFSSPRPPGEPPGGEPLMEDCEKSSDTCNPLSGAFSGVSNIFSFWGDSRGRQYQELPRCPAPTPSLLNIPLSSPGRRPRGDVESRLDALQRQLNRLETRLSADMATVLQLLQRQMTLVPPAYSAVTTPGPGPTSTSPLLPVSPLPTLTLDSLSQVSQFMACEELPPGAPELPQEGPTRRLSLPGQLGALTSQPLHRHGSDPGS

| Structure (SMILES) | hERG current change (%, negative = inhibition) at 10uM [%] |
| --- | --- |
| O=C(NC1CCCCC1)C(c1ccccc1)N(C(=O)c1cccs1)c1ccc2c(c1)OCO2 (centres unmarked) | 5.99 |
| CCCCOc1ccccc1C1NC(=O)NC(C)=C1C(=O)OCCOC (centres unmarked) | -5.16 |
| O=C1c2ccccc2C(Nc2ccc(-c3nc4ccccc4[nH]3)cc2)N1Cc1ccco1 (centres unmarked) | -33.3 |
| CCCc1c(O)nc(SCC(=O)N2CCCCC2)[nH]c1=O | 24.6 |
| Cn1c[n+](C)cc1/C=N/O.[I-] | 24.1 |
| Cc1ccc(S(=O)(=O)Nc2cc(C(=O)NCCN(C)C)ccc2N2CCCC2)cc1 | -6.83 |
| CC(C)Cc1nnc(NC(=O)CCC(=O)NC2CCCCCCC2)s1 | 15.1 |
| CCC/C(=N\NC(=O)c1cccc(C)c1)c1ccccc1 | 2.17 |
| Cn1c(=O)c2c(nc(N/N=C/c3ccco3)n2C)n(C)c1=O | -3.97 |
| CC(NC(=O)c1cc(-c2ccc3c(c2)OCO3)nc2ccccc12)C(C)(C)C.Cl (centres unmarked) | -19.4 |
| CC12CCC(C(=O)N(CSC(=S)N/N=C\c3ccccc3O)C1=O)C2(C)C (centres unmarked) | 10.8 |
| Cc1oc(-c2ccc(Cl)cc2)nc1CN1CCCC(C(=O)N2CCOCC2)C1 (centres unmarked) | -53.8 |
| O=C(COC(=O)c1cccc(N2C(=O)c3ccccc3C2=O)c1)Nc1ccccc1 | 11.8 |
| CC1(C(=O)O)Oc2cccnc2NC1=O (centres unmarked) | 13.9 |
| CNC(=O)Oc1ccc2c(c1)[C@]1(C)CCN(C)[C@@H]1N2C.O=C(O)c1ccccc1O | 10.7 |
| COc1cc(NC(=O)COC(=O)CNC(=O)c2cc(C)cc(C)c2)c(C)cc1[N+](=O)[O-] | -17.3 |
| COc1ccc(NC(=O)CN(C)C(=O)CNC(=O)c2ccc3c(c2)OCO3)cc1 | -3.88 |
| Cc1ccc(C(=O)N2CCCC(c3ccc(Cl)cc3)=N2)cc1 | 5.68 |
| COC(=O)c1cc(-c2cccs2)nn1-c1ccccc1 | -11.7 |
| COc1ccc(C(CNc2ccc(S(C)(=O)=O)cc2[N+](=O)[O-])N(C)C)cc1OC (centres unmarked) | -27 |
| N#CCCn1cc(C(=O)Nc2ccc(C(=O)O)cc2)c(-c2cccs2)n1 | 21 |
| Cc1ccc(C2=NOC3(CC(=O)N(c4ccccc4)C3=O)C2)cc1 (centres unmarked) | 21.4 |

| Structure (SMILES) | hERG current change (%, negative = inhibition) at 10uM [%] |
| --- | --- |
| COc1ccc(C(=O)Nc2cc(OC)cc3cccnc23)cc1 | 17.1 |
| CCOc1ccccc1NC(=O)COC(=O)C1CC(=O)N(c2c(C)cccc2C)C1 (centres unmarked) | -7.94 |
| Cc1ccc(N(CC(=O)N2CC(=O)Nc3ccccc32)S(=O)(=O)c2ccc3c(c2)OCCO3)cc1 | -2.7 |
| Cl.c1ccc(CN2CCC3(CCCc4ccccc43)CC2)cc1 | -69.6 |
| Cn1c(OCc2cccnc2)nc2c1c(=O)n(Cc1ccc(Cl)cc1)c(=O)n2C | -51.1 |
| CCOC(=O)N1CCC(=NNc2nc(C)cc(=O)[nH]2)CC1 | 38.3 |
| Cc1ccc(Nc2nc(Nc3ccc(C)cc3)nc(SC3=NCCS3)n2)cc1 | -6.64 |
| COc1ccc(C(=O)N(Cc2ccco2)C(C(=O)NC2CCCC2)c2ccc(O)cc2)cc1OC (centres unmarked) | -10.9 |
| CCn1nc(C(=O)NCCc2ccc(S(N)(=O)=O)cc2)c2ccccc2c1=O | -7.2 |
| CCOc1ccc2nc(NS(=O)(=O)Cc3ccccc3)sc2c1 | 9.15 |
| Cc1ccc(-c2nc(CS(=O)CC(=O)NC3CCCCC3)c(C)o2)cc1 (centres unmarked) | -0.178 |
| O=C(CSc1nnc(C2CC2)n1Cc1ccccc1)NCc1ccccc1 | -9.9 |
| CCOC(=O)c1c(C)n(C)c2ccc(OC)c(NC(=O)CN3CCN(C4CCCCC4)CC3)c12 | -16.8 |
| CCOc1ccc(NC(=O)CN(C)C(=O)c2ccccc2-n2cnnn2)cc1OCC | 14.4 |
| COCCOC(=O)c1c(NC(=O)COC(=O)Cc2cccc(OC)c2)sc(C(N)=O)c1C | 13.8 |
| O=C(/C=C/c1ccccc1)Nn1cnnc1 | 3.03 |
| COc1ccccc1N1C(=O)CC(Nc2ccc(N3CCOCC3)cc2)C1=O (centres unmarked) | 18.6 |
| COC(=O)c1sccc1NC(=O)Nc1ccccc1F | 13.4 |
| COC(=O)/C(=N\Nc1ccc(Cl)cc1)Sc1nnc(-c2ccc(OC)cc2)n1C | -0.174 |
| CCOC(=O)C(CCCCOc1ccc([N+](=O)[O-])cc1)C(=O)OCC | -54.8 |
| Cc1cc(C)n(-c2ncnc3sc(C)c(C)c23)n1 | -1.44 |
| O=C(Nc1ccc(F)cc1)NC1(C(=O)NCc2ccc3c(c2)OCO3)CCCCC1 | 10.7 |
